{"source": "the supplement of paper PMC9135407", "tested_on": "primary human hepatic stellate cells (donor 1)", "assay": "scaled lipid accumulation score (0 = DMSO-like, 1 = nortriptyline-like); higher = stronger HSC inactivation (lipid re-accumulation), active = hit call of the paper", "conditions": "48 h", "key": {"[1]": {"conditions": "library stock concentration: 3.33 mM"}, "[2]": {"conditions": "library stock concentration: 10 mM"}, "[3]": {"conditions": "library stock concentration: 1 mM"}, "[4]": {"conditions": "library stock concentration: 80 uM"}, "[5]": {"conditions": "library stock concentration: 400 uM"}, "[6]": {"conditions": "library stock concentration: 2 mM"}}, "note": "“And” between values parts separate entries of the source, which are not always exact repeats. Equal entries are not always repeated. Structures can show the parent of a compound that is named as a salt. About 620 (11%) of roughly 5,800 compounds showed activity.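 The calls were made as follows: active = score above a cut-off or among the top three wells of a plate; in these data no inactive exceeds 0.85.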 Only a part is listed here, and it is no random draw."}
{"smiles": "CCCCOc1ccc(OCCCN2CCOCC2)cc1", "note": "[Pramoxine HCl]", "values": [{"measurement": "scaled lipid accumulation score", "setting": "[1]", "value": "inactive: ≤ 0"}, {"measurement": "scaled lipid accumulation score", "setting": "[2]", "value": "inactive: 0.369"}]}
{"smiles": "S=P(N1CC1)(N1CC1)N1CC1", "note": "[Thiotepa]", "values": [{"measurement": "scaled lipid accumulation score", "setting": "[2]", "value": "inactive: ≤ -0.027"}, {"measurement": "scaled lipid accumulation score", "setting": "library stock concentration: 10.6 mM", "value": "inactive: ≤ 0"}]}
{"smiles": "COc1cc(N)c(Cl)cc1C(=O)NC1CCN(Cc2ccccc2)CC1", "note": "[Clebopride maleate]", "values": [{"measurement": "scaled lipid accumulation score", "value": "inactive: 0.22"}, {"measurement": "scaled lipid accumulation score", "setting": "[2]", "value": "inactive: 0.021"}]}
{"smiles": "O=C(Nc1cc(Cl)cc2c1[nH]c1cnccc12)c1cccnc1", "note": "[IKK Inhibitor X]", "values": [{"measurement": "scaled lipid accumulation score", "setting": "[1]", "value": "inactive: ≤ 0"}]}
{"smiles": "CCCCC/C=C\\C/C=C\\C/C=C\\CCCC/C=C\\CCC(=O)O", "note": "[cis-4,10,13,16-Docosatetraenoic Acid]", "values": [{"measurement": "scaled lipid accumulation score", "setting": "[3]", "value": "inactive: ≤ 0"}]}
{"smiles": "CNC(=O)CN1CCC(Oc2cc3c(Nc4cccc(Cl)c4F)ncnc3cc2OC)CC1", "note": "[AZD8931 (Sapitinib)]", "values": [{"measurement": "scaled lipid accumulation score", "setting": "[1]", "value": "inactive: 0.28"}, {"measurement": "scaled lipid accumulation score", "setting": "[2]", "value": "inactive: 0.713"}]}
{"smiles": "CCCS(=O)(=O)Nc1ccc(F)c(C(=O)c2c[nH]c3ncc(Cl)cc23)c1F", "values": [{"measurement": "scaled lipid accumulation score", "setting": "[4]", "value": "inactive: ≤ 0"}, {"measurement": "scaled lipid accumulation score", "setting": "[5]", "value": "inactive: ≤ 0 and inactive: 0.028"}, {"measurement": "scaled lipid accumulation score", "setting": "[6]", "value": "inactive: ≤ 0 and inactive: 0.042"}, {"measurement": "scaled lipid accumulation score", "setting": "[1]", "value": "inactive: ≤ 0"}, {"measurement": "scaled lipid accumulation score", "setting": "[2]", "value": "inactive: ≤ 0"}]}
{"smiles": "CCCCC[C@H](O)/C=C/[C@H]1C=CC(=O)[C@H]1C/C=C\\CCCC(=O)O", "note": "[8-iso Prostaglandin A2]", "values": [{"measurement": "scaled lipid accumulation score", "setting": "[3]", "value": "inactive: ≤ 0"}]}
{"smiles": "Nc1nc(N)nc(-c2cc(Cl)ccc2Cl)n1", "note": "[Irsogladine]", "values": [{"measurement": "scaled lipid accumulation score", "setting": "[1]", "value": "inactive: 0.012"}, {"measurement": "scaled lipid accumulation score", "setting": "[2]", "value": "inactive: ≤ 0"}]}
{"smiles": "Nc1nc(N)nc(-c2cc(Cl)ccc2Cl)n1", "values": [{"measurement": "scaled lipid accumulation score", "setting": "[2]", "value": "inactive: ≤ 0"}]}
{"smiles": "Nc1nc(N)nc(-c2cc(Cl)ccc2Cl)n1", "note": "[Irsogladine maleate]", "values": [{"measurement": "scaled lipid accumulation score", "setting": "library stock concentration: 7.8 mM", "value": "inactive: ≤ 0"}, {"measurement": "scaled lipid accumulation score", "setting": "[2]", "value": "inactive: 0.011"}]}
{"smiles": "CCN1CCCC1CNC(=O)c1cc(S(=O)(=O)CC)c(N)cc1OC", "note": "(stereo not drawn) [Amisulpride]", "values": [{"measurement": "scaled lipid accumulation score", "setting": "[1]", "value": "inactive: ≤ 0"}, {"measurement": "scaled lipid accumulation score", "setting": "[2]", "value": "inactive: ≤ 0 and inactive: 0.028"}]}
{"smiles": "CCN1CCN(Cc2ccc(Nc3ncc4c(n3)N(C)c3ccccc3C(=O)N4C)cc2C(F)(F)F)CC1", "values": [{"measurement": "scaled lipid accumulation score", "setting": "[4]", "value": "inactive: 0.012"}, {"measurement": "scaled lipid accumulation score", "setting": "[5]", "value": "inactive: 0.132"}, {"measurement": "scaled lipid accumulation score", "setting": "[6]", "value": "inactive: 0.243"}, {"measurement": "scaled lipid accumulation score", "setting": "[2]", "value": "inactive: 0.479"}]}
{"smiles": "O=C(Nc1cccc(Cl)c1)Nc1ncc(CCNc2ncnc3ccsc23)s1", "note": "[SNS-314 Mesylate]", "values": [{"measurement": "scaled lipid accumulation score", "setting": "[1]", "value": "inactive: 0.041"}, {"measurement": "scaled lipid accumulation score", "setting": "[2]", "value": "inactive: 0.269"}]}
{"smiles": "O=C(Nc1cccc(Cl)c1)Nc1ncc(CCNc2ncnc3ccsc23)s1", "values": [{"measurement": "scaled lipid accumulation score", "setting": "[5]", "value": "inactive: ≤ -0.005"}, {"measurement": "scaled lipid accumulation score", "setting": "[6]", "value": "inactive: ≤ -0.005"}, {"measurement": "scaled lipid accumulation score", "setting": "[2]", "value": "inactive: ≤ -0.005"}]}
{"smiles": "Nc1ncnc2c1c(-c1cccc(OCc3ccccc3)c1)cn2C1CC(CN2CCCC2)C1", "note": "(stereo not drawn)", "values": [{"measurement": "scaled lipid accumulation score", "setting": "[2]", "value": "inactive: 0.36"}]}
{"smiles": "CCCCC[C@H](O)/C=C/[C@@H]1[C@H](CCCCCCC(=O)O)[C@H](O)C[C@H]1O", "note": "[8-iso Prostaglandin F1.beta.]", "values": [{"measurement": "scaled lipid accumulation score", "setting": "[3]", "value": "inactive: ≤ 0"}]}
{"smiles": "CCc1c(C(=O)NCCc2ccc(N3CCCCC3)cc2)[nH]c2ccc(Cl)cc12", "values": [{"measurement": "scaled lipid accumulation score", "setting": "[1]", "value": "inactive: ≤ 0"}, {"measurement": "scaled lipid accumulation score", "setting": "[2]", "value": "inactive: 0.385"}]}
{"smiles": "COc1cc2ncnc(Nc3cc(Br)c(O)c(Br)c3)c2cc1OC", "values": [{"measurement": "scaled lipid accumulation score", "setting": "[4]", "value": "inactive: ≤ 0"}, {"measurement": "scaled lipid accumulation score", "setting": "[5]", "value": "inactive: ≤ 0"}, {"measurement": "scaled lipid accumulation score", "setting": "[6]", "value": "inactive: ≤ 0"}, {"measurement": "scaled lipid accumulation score", "setting": "[2]", "value": "inactive: 0.04"}]}
{"smiles": "CCn1c(=O)n(C2=C(CO)CN(CC3CCCCCCC3)CC2)c2ccccc21", "values": [{"measurement": "scaled lipid accumulation score", "setting": "[2]", "value": "inactive: 0.105"}]}
{"smiles": "CCCCCCCC/C=C\\CCCCCCCC(=O)O", "note": "[Oleic Acid]", "values": [{"measurement": "scaled lipid accumulation score", "setting": "[3]", "value": "inactive: ≤ 0"}, {"measurement": "scaled lipid accumulation score", "setting": "[2]", "value": "inactive: ≤ -0.015"}]}
{"smiles": "Nc1nc2c(nc(O)n2[C@@H]2O[C@H](CO)[C@@H](O)[C@H]2O)c(=O)[nH]1", "note": "[8-hydroxy Guanosine]", "values": [{"measurement": "scaled lipid accumulation score", "setting": "[3]", "value": "inactive: ≤ 0"}]}
{"smiles": "CCCCC[C@H](O)CC(=O)CCc1ccc(O)c(OC)c1", "note": "[6-Gingerol]", "values": [{"measurement": "scaled lipid accumulation score", "setting": "library stock concentration: 17 mM", "value": "inactive: ≤ -0.014"}]}
{"smiles": "CO[C@H]1C[C@@H]2CC[C@@H](C)[C@@](O)(O2)C(=O)C(=O)N2CCCC[C@H]2C(=O)O[C@H]([C@H](C)C[C@@H]2CC[C@@H](OP(C)(C)=O)[C@H](OC)C2)CC(=O)[C@H](C)/C=C(\\C)[C@@H](O)[C@@H](OC)C(=O)[C@H](C)C[C@H](C)/C=C/C=C/C=C/1C", "note": "[Ridaforolimus (Deforolimus, MK-8669)]", "values": [{"measurement": "scaled lipid accumulation score", "setting": "[1]", "value": "inactive: ≤ 0"}, {"measurement": "scaled lipid accumulation score", "setting": "[2]", "value": "inactive: ≤ 0"}]}
{"smiles": "Cc1c(OCC(F)(F)F)ccnc1C[S+]([O-])c1nc2ccccc2[nH]1", "note": "(stereo not drawn) [Lansoprazole]", "values": [{"measurement": "scaled lipid accumulation score", "value": "inactive: ≤ 0"}, {"measurement": "scaled lipid accumulation score", "setting": "[1]", "value": "inactive: ≤ 0"}, {"measurement": "scaled lipid accumulation score", "setting": "library stock concentration: 5.4 mM", "value": "inactive: ≤ 0"}]}
{"smiles": "CNCCc1c[nH]c(CCC(c2ccccc2)c2ccccc2)n1.O=C(O)C(=O)O.O=C(O)C(=O)O", "note": "[N-Methylhistaprodifen dioxalate salt]", "values": [{"measurement": "scaled lipid accumulation score", "setting": "[2]", "value": "active: 1.02"}]}
{"smiles": "[N-]=[N+]=Nc1ccc(C(=O)CSC[C@H](NC(=O)CC[C@H](N)C(=O)O)C(=O)NCC(=O)O)cc1", "note": "[S-(p-Azidophenacyl)glutathione]", "values": [{"measurement": "scaled lipid accumulation score", "setting": "[2]", "value": "inactive: ≤ 0"}]}
{"smiles": "Cn1c(=O)c2c(ncn2C)n(C)c1=O", "note": "[Caffeine]", "values": [{"measurement": "scaled lipid accumulation score", "setting": "[2]", "value": "inactive: ≤ 0"}]}
